From the supplement of paper PMC3334620
In all, about 33,000 sequences were measured (“E-score (-0.5 to 0.5)”: median about -0.04, highest 2% from about 0.36 on). The list shows a part of the results.

These sequences were tested against T1, Hmlalpha2 (UniProt P0CY09) (assay: PBM E-score (8-mer binding enrichment) (E-score (-0.5 to 0.5)); higher = stronger / more preferred TF binding; most listed sequences are background and not binding sites). Conditions: protein concentration: 200 nM; construct: GST-full length.
T1 sequence: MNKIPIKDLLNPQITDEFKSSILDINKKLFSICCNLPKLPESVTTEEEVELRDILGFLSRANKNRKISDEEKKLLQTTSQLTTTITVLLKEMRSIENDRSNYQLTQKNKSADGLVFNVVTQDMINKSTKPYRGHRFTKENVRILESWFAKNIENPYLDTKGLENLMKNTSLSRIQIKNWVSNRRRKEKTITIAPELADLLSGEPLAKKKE
Summary of the method: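 Detection of bound protein used fluorescent anti-GST, with scans normalised by masliner. The proteins were GST-tagged yeast transcription factors applied at about 100-200 nM to universal all-10-mer Agilent arrays made double-stranded by primer extension. Each ungapped eight-base word, pooled with its reverse complement, was scored with an E-score from the Universal PBM Analysis Suite.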

| Sequence | PBM E-score |
| --- | --- |
| CGGATACA | 0.209 |
| AATTGACG | 0.1 |
| CATGGCCA | -0.00377 |
| ACGATTAC | 0.383 |
| GATTAGGC | 0.00274 |
| CCAGAGCA | -0.18 |
| GAAGCTCA | -0.0455 |
| CGCCTCCC | -0.221 |
| AGGCAGCC | -0.253 |
| AAAACGGG | -0.0612 |
| AATTGGGG | -0.26 |
| GCTCAGAC | -0.25 |
| AACCCGTT | -0.106 |
| CACCCAGC | -0.247 |
| ACTCGAGT | 0.216 |
| AGAATGAA | 0.0371 |
| AGACGGTA | -0.168 |
| TCGGCTAA | -0.0589 |
| TAGTTGGA | 0.00334 |
| CCACCGAC | -0.106 |
| TACAGATA | 0.0941 |
| AAAGAGAT | -0.0469 |
| AATCCTGC | -0.0638 |
| ACAACGGT | 0.128 |
| ACACGGTA | 0.366 |

| Sequence | PBM E-score |
| --- | --- |
| ATATGGGC | -0.109 |
| TAGCTGCA | -0.0884 |
| AAACGATG | 0.0541 |
| AACCCGGT | -0.174 |
| ATATGCCA | -0.212 |
| TACACCGA | 0.115 |
| GAAAAGGC | -0.148 |
| GTGCCTGA | -0.237 |
| AACACATA | 0.39 |
| TCAACAAA | 0.272 |
| ACGCGCAC | 0.189 |
| GAAGAGCA | -0.147 |
| CCACGCAA | -0.0282 |
| ATCCACCA | -0.092 |
| CAAGAGCA | -0.00496 |
| CTTGCTTA | -0.0865 |
| GAACAACC | -0.0114 |
| CACGACTC | 0.186 |
| AATGCCGC | -0.107 |
| CGGCACCG | -0.155 |
| ATTGTAAG | 0.0623 |
| CAATGCTC | -0.0938 |
| CAAACTTG | 0.0129 |
| CTATGAGC | -0.197 |
| CATAGTAG | -0.0314 |

| Sequence | PBM E-score |
| --- | --- |
| AAGTCCCC | -0.248 |
| GAGGGTGA | -0.233 |
| AACCCGGG | -0.179 |
| AAGTACGG | 0.0031 |
| TAGCTAGA | 0.0152 |
| ATGAGGCA | -0.148 |
| ATATGCGC | 0.154 |
| ATATCATA | 0.148 |
| GACGTTGC | -0.129 |
| AGGTACCC | -0.312 |
| CATCCAAC | 0.077 |
| CTTATAGC | 0.0895 |
| GCAGTCGC | -0.219 |
| ATAGGGGA | -0.308 |
| GGCCGTGA | -0.249 |
| AGTTTGAG | -0.0384 |
| AGTATGAA | 0.123 |
| CACCACCG | -0.185 |
| AGACTGCC | -0.15 |
| ACTAAGCT | 0.102 |
| AGAAGCGG | -0.259 |
| AGCCAGTC | -0.326 |
| CCGTGGGC | -0.189 |
| CTACCAGC | -0.171 |
| ATGACGAA | 0.156 |

| Sequence | PBM E-score |
| --- | --- |
| ACTCGGAC | -0.0661 |
| CAGAGGGC | -0.164 |
| ACTACAGG | 0.133 |
| CAAGTCGG | -0.175 |
| ACTTTCGG | -0.0932 |
| AACGATTC | -0.0757 |
| GTAGGCAC | -0.107 |
| CTACACAG | 0.421 |
| ACCAATGC | -0.0446 |
| CCATCCGG | -0.249 |
| AGAATTGG | -0.205 |
| CCGGAAAA | -0.0183 |
| CGATATAA | 0.0472 |
| AATTTGGA | 0.0448 |
| ACCCTTCG | -0.106 |
| ACTTCAAA | -0.0197 |
| CAAAGTAA | 0.199 |
| ACAGATTG | 0.0116 |
| GATAAAGA | -0.18 |
| AATTGTTG | 0.119 |
| CGATGCCA | -0.156 |
| CACTCATA | -0.0437 |
| AAGGGCTC | -0.21 |
| GCAGTCAC | -0.215 |
| ACCACCTG | -0.221 |

| Sequence | PBM E-score |
| --- | --- |
| GTGACTCA | -0.132 |
| ACGCGCAA | 0.231 |
| CAAACCGC | -0.231 |
| ATGCACAT | 0.103 |
| ACTTCCAA | -0.0901 |
| ACACGACG | 0.42 |
| ATGTAAGA | 0.433 |
| ATTTGTCA | 0.123 |
| AACTATGT | 0.335 |
| ACTAGAAT | 0.137 |
| AATCAAGT | 0.226 |
| CCGGGGAG | -0.241 |
| ACCAGGGA | -0.0847 |
| AAAGAAGG | -0.204 |
| AGCATTTG | 0.00311 |
| ATAATGTC | 0.13 |
| AGTACAGG | 0.134 |
| GCGAAAGC | -0.122 |
| CGGCTGGC | -0.216 |
| CCGTAACA | 0.262 |
| ACTTCCCA | -0.156 |
| CCTGTAAG | -0.00273 |
| AAAATTTA | 0.107 |
| GCATCAAC | 0.0819 |
| CGAAAAAG | -0.0861 |

| Sequence | PBM E-score |
| --- | --- |
| ACGCCCGA | -0.177 |
| ACCGGCGG | -0.414 |
| CCTTTAAG | -0.0876 |
| TATTGAGA | 0.0411 |
| CTAGGTGC | -0.231 |
| ACAGAGAA | 0.018 |
| CGGCCGAC | -0.188 |
| GTAAGTCA | 0.102 |
| ACTGGCGG | -0.173 |
| GTGGAAGA | -0.0343 |
| CGACCGGA | -0.258 |
| CCAGTAAA | 0.0249 |
| TCATCCCA | -0.231 |
| AGTATTCA | 0.148 |
| GACTCTAA | -0.0784 |
| ACCGAGTG | -0.0761 |
| CGCGGTAC | -0.0317 |
| TACATCCA | 0.311 |
| TCATAAGA | -0.00466 |
| CCTGGGCC | -0.254 |
| AGGCTGCG | 0.0127 |
| TAATTTCA | 0.182 |
| ACCAAAAG | 0.0656 |
| GGGGCATA | -0.257 |
| AATGCAGC | -0.17 |

| Sequence | PBM E-score |
| --- | --- |
| CCGGATAG | -0.0549 |
| ATTCAAAA | 0.121 |
| CGGTTGTA | 0.121 |
| TGATGCCA | -0.099 |
| CGGCGAAC | -0.257 |
| ATACCCTC | -0.0624 |
| CCGCATTA | -0.0889 |
| TCCACTCA | -0.171 |
| CTTTGTGC | 0.159 |
| AGTTATGA | -0.0139 |
| ATCGAGTA | 0.145 |
| GTTGAGGA | 0.0618 |
| CGGTCGAC | -0.137 |
| GTGTGCGA | -0.0166 |
| AAAATAAA | 0.0428 |
| CTACTTTC | 0.0711 |
| ATGTTCTC | 0.151 |
| ACGGTTCT | 0.144 |
| ATGTCAGC | 0.155 |
| AGCCGGGA | -0.236 |
| AACGGACG | -0.152 |
| CGCGGCGA | -0.0361 |
